Measured values taken from article PMC4242493.
The other results are listed elsewhere or left out. The list includes weakly bound sequences.

target: MaxL homodimer (UniProt P61244); assay: universal protein-binding microarray (PBM); details: PBS-based mixture, 10 nM His-tagged protein dimer, 2% milk, 200 ng/uL BSA, 50 ng/uL salmon testes DNA, 0.02% TX-100; detection with Alexa 488 anti-His …; high values mean tight binding; most listed sequences are background and not binding sites; double strand, one strand shown
UniProt P61244, sequence (P61244 whole entry): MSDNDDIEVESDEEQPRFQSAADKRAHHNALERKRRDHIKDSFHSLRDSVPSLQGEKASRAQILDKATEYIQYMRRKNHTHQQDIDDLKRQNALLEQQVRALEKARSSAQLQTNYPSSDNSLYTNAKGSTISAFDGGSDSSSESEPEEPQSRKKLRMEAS

Row | Sequence | binding signal (normalized occupancy)
1 | GGTGGTGA | 0.0762
2 | GAGCCGGC | 0.0679
3 | AACCGCAT | 0.0887
4 | AAAGCCCG | 0.0682
5 | ACACAGAA | 0.0706
6 | GAGTCCCC | 0.0739
7 | CTGCGGTC | 0.0645
8 | CGATGGAG | 0.0744
9 | GATATCGC | 0.0783
10 | CTGCTAGA | 0.0711
11 | AGCAACTC | 0.0723
12 | GACTATCA | 0.078
13 | ACAGTAGA | 0.0759
14 | CTAACTGA | 0.0678
15 | AACATCCA | 0.0849
16 | GTCTACAA | 0.0691
17 | CAACGCGC | 0.0787
18 | ACCTCCGC | 0.0705
19 | ACAGTACA | 0.0836
20 | AAACAGGT | 0.0767
21 | ATAGACGC | 0.0812
22 | AATTATAG | 0.0842

Row | Sequence | binding signal (normalized occupancy)
23 | GGCGTCCA | 0.07
24 | CCATGGCC | 0.0766
25 | ACCTAGCC | 0.0695
26 | TACGTCTA | 0.0778
27 | CGAATCTA | 0.0681
28 | AGCGCTTG | 0.0662
29 | ACACCCCG | 0.081
30 | CAGTGCGA | 0.0749
31 | GATTTGCA | 0.0765
32 | TAGTAAGA | 0.0762
33 | AGGTACTA | 0.0756
34 | GTATGTGA | 0.0798
35 | ATTGGATG | 0.0775
36 | AGGTAATC | 0.0761
37 | GATTAGAC | 0.0752
38 | GCTCGCCA | 0.0723
39 | AAAAGCCG | 0.0649
40 | GTTGAATA | 0.0772
41 | ACATAGTG | 0.0802
42 | GCGACACA | 0.0786
43 | AGACAGAG | 0.0712
44 | AGGGAACT | 0.0689

Row | Sequence | binding signal (normalized occupancy)
45 | AGATTGGG | 0.0755
46 | CTGTTCCA | 0.0746
47 | CGCATCAC | 0.0793
48 | AGAGCACT | 0.0735
49 | CTTACGGC | 0.0685
50 | CGCCATAG | 0.0742
51 | AGGACAAG | 0.0738
52 | AACGCTAT | 0.0773
53 | CGTCACTC | 0.074
54 | GCTGCGCC | 0.0683
55 | AGTAGGTG | 0.0747
56 | CGGAGGTA | 0.0743
57 | CCGCCGAG | 0.0652
58 | TCATCGAA | 0.0731
59 | AAATCTCG | 0.0765
60 | AGTCGTCC | 0.0751
61 | CCGGATAG | 0.0739
62 | CGAGCCAC | 0.0769
63 | AGACCAAC | 0.0715
64 | AGAACTCG | 0.0748
65 | GCCGAAAA | 0.0676
66 | CGTCCGCC | 0.0713

Row | Sequence | binding signal (normalized occupancy)
67 | ACGGTTAA | 0.0751
68 | CTGGAGGA | 0.0754
69 | CTTTCTGA | 0.0702
70 | GGAATGAC | 0.0748
71 | CCCCTCGA | 0.0737
72 | GCAATTTA | 0.0738
73 | CTGCGGCA | 0.0732
74 | GTATTCAA | 0.0744
75 | ATTTAGAG | 0.0735
76 | AAAGTAGC | 0.0741
77 | CCAGTGTA | 0.0747
78 | CATCGACG | 0.0723
79 | ATTCAGCA | 0.0725
80 | CGCTCTCC | 0.072
81 | ATCATCGG | 0.0757
82 | ACGGCTTC | 0.0707
83 | GCCTTTTA | 0.0745
84 | GCCTAATA | 0.0741
85 | CGGGAATC | 0.0688
86 | AGGGGCCC | 0.0684
